{
  "source": "the BET-seq Pho4 binding data (Le et al. 2018)",
  "note": "Some of the results follow. These are noisy estimates, calculated here from bound and input reads.",
  "data": [
    {"target": "T1, Pho4 (S. cerevisiae) (UniProt P07270)", "T1 sequence": "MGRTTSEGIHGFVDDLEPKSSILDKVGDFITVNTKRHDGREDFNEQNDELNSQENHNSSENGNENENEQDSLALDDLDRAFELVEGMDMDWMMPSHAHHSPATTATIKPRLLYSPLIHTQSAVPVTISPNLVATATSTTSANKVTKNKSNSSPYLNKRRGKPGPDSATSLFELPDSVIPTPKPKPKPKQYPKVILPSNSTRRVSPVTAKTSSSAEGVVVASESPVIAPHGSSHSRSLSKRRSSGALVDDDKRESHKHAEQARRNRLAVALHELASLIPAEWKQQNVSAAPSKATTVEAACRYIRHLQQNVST", "test": "relative binding free energy (BET-seq); higher = weaker binding", "conditions": "reference: library average", "units": {"relative binding free energy": "kcal/mol"}, "values": [
      {"sequence": "GATGGCACGTGGAGTC", "relative binding free energy": 0.11},
      {"sequence": "GGGGGCACGTGTCCGG", "relative binding free energy": -0.08},
      {"sequence": "GTTTTCACGTGGCTCT", "relative binding free energy": 0.21},
      {"sequence": "CATGTCACGTGATGTT", "relative binding free energy": 0.24},
      {"sequence": "TGAATCACGTGTGTCA", "relative binding free energy": 0.3},
      {"sequence": "TGCGCCACGTGGCGGT", "relative binding free energy": -0.24},
      {"sequence": "AGGTGCACGTGGCGCT", "relative binding free energy": -0.28},
      {"sequence": "TAGAGCACGTGGGGCC", "relative binding free energy": -0.19},
      {"sequence": "TTCTTCACGTGTAGCT", "relative binding free energy": 0.33},
      {"sequence": "AGTGTCACGTGGTATG", "relative binding free energy": -0.07},
      {"sequence": "AGGCTCACGTGTCTTG", "relative binding free energy": 0.29},
      {"sequence": "ACTGGCACGTGGGGAG", "relative binding free energy": -0.16},
      {"sequence": "TGTTGCACGTGTGTAA", "relative binding free energy": -0.03},
      {"sequence": "TATGTCACGTGGTAGA", "relative binding free energy": 0.05},
      {"sequence": "AGTGGCACGTGGTTCT", "relative binding free energy": -0.1},
      {"sequence": "TTATGCACGTGTACCT", "relative binding free energy": 0.1},
      {"sequence": "TTGTTCACGTGGTTAT", "relative binding free energy": 0.33},
      {"sequence": "TTGACCACGTGGTGTA", "relative binding free energy": -0.17},
      {"sequence": "TGTACCACGTGGTGCG", "relative binding free energy": -0.22},
      {"sequence": "ACGAGCACGTGTGGTA", "relative binding free energy": -0.07},
      {"sequence": "GGGGTCACGTGATTAC", "relative binding free energy": 0.34},
      {"sequence": "TGATGCACGTGAATTT", "relative binding free energy": 0.24},
      {"sequence": "TAATGCACGTGATCGG", "relative binding free energy": 0.01},
      {"sequence": "TGGTGCACGTGGATGT", "relative binding free energy": 0.05},
      {"sequence": "ATGAACACGTGCTGGG", "relative binding free energy": -0.04},
      {"sequence": "TTTTTCACGTGTAGAA", "relative binding free energy": 0.32},
      {"sequence": "GTGTGCACGTGAACAG", "relative binding free energy": 0.22},
      {"sequence": "GTTAACACGTGGTTGA", "relative binding free energy": -0.15},
      {"sequence": "TATTTCACGTGTCTTA", "relative binding free energy": 0.24},
      {"sequence": "TGGTCCACGTGTATAG", "relative binding free energy": 0.07},
      {"sequence": "TGTGCCACGTGTAAAG", "relative binding free energy": 0.03},
      {"sequence": "AGGATCACGTGTATAG", "relative binding free energy": 0.11},
      {"sequence": "TGTGTCACGTGCATTG", "relative binding free energy": 0.05},
      {"sequence": "TGAAGCACGTGCGGGC", "relative binding free energy": -0.07},
      {"sequence": "AGGAGCACGTGGGTCG", "relative binding free energy": -0.06},
      {"sequence": "GGGTTCACGTGCAGTA", "relative binding free energy": 0.19},
      {"sequence": "CATTGCACGTGTGGCT", "relative binding free energy": -0.04},
      {"sequence": "GTCTTCACGTGCGCGG", "relative binding free energy": 0.41},
      {"sequence": "TGGTACACGTGATAAG", "relative binding free energy": 0.12},
      {"sequence": "ATTGTCACGTGTGAAC", "relative binding free energy": 0.3},
      {"sequence": "GTTTACACGTGATTGG", "relative binding free energy": 0.36},
      {"sequence": "TGGACCACGTGTTGAG", "relative binding free energy": 0.06},
      {"sequence": "GGTGGCACGTGGCGAG", "relative binding free energy": -0.17},
      {"sequence": "GAGGACACGTGCGGTA", "relative binding free energy": 0.09},
      {"sequence": "TGATGCACGTGATAGC", "relative binding free energy": 0.08},
      {"sequence": "GGGGACACGTGTAGTT", "relative binding free energy": 0.28},
      {"sequence": "GTCTTCACGTGCTGTT", "relative binding free energy": 0.24},
      {"sequence": "AATTACACGTGTGGTG", "relative binding free energy": 0.05},
      {"sequence": "TTCTTCACGTGATGGG", "relative binding free energy": 0.38},
      {"sequence": "CGTGTCACGTGATTTG", "relative binding free energy": 0.28},
      {"sequence": "CGGTTCACGTGTGTTG", "relative binding free energy": 0.27},
      {"sequence": "CTGTGCACGTGAGCGG", "relative binding free energy": 0.13},
      {"sequence": "CGGAGCACGTGTATGG", "relative binding free energy": -0.2},
      {"sequence": "TACATCACGTGGGCGT", "relative binding free energy": 0.08},
      {"sequence": "TCTGTCACGTGGGTCG", "relative binding free energy": 0.05},
      {"sequence": "GTCTTCACGTGGGGGG", "relative binding free energy": 0.2},
      {"sequence": "GGGGTCACGTGGGACC", "relative binding free energy": 0.12},
      {"sequence": "GCTGGCACGTGAGTAG", "relative binding free energy": 0.17},
      {"sequence": "ATCCGCACGTGGGGTT", "relative binding free energy": -0.21},
      {"sequence": "ATGAGCACGTGTTCTT", "relative binding free energy": 0.07},
      {"sequence": "CTAATCACGTGGTGAG", "relative binding free energy": 0.17},
      {"sequence": "ATTAACACGTGTTGTA", "relative binding free energy": -0.09},
      {"sequence": "GTGGGCACGTGTCGTA", "relative binding free energy": -0.08},
      {"sequence": "TAGTGCACGTGAGGAG", "relative binding free energy": 0.2},
      {"sequence": "TAAAACACGTGGGTGG", "relative binding free energy": -0.21},
      {"sequence": "CGGGGCACGTGATCGT", "relative binding free energy": -0.13},
      {"sequence": "TGCTACACGTGTGGGG", "relative binding free energy": 0.07},
      {"sequence": "TGCGTCACGTGGAGCG", "relative binding free energy": 0.18},
      {"sequence": "GTTGACACGTGGCTGA", "relative binding free energy": 0.04},
      {"sequence": "GAGGTCACGTGATTTA", "relative binding free energy": 0.19},
      {"sequence": "AGAAGCACGTGGGGAA", "relative binding free energy": -0.29},
      {"sequence": "GTCTTCACGTGGTTTA", "relative binding free energy": 0.29},
      {"sequence": "AGTGCCACGTGTATGG", "relative binding free energy": -0.03},
      {"sequence": "AATTTCACGTGTTCAT", "relative binding free energy": 0.22},
      {"sequence": "GGTTACACGTGTTCAT", "relative binding free energy": 0.18},
      {"sequence": "GTTATCACGTGAAGCG", "relative binding free energy": 0.43},
      {"sequence": "ATTTTCACGTGCATAG", "relative binding free energy": 0.23},
      {"sequence": "TAATTCACGTGAGTCT", "relative binding free energy": 0.27},
      {"sequence": "TTGTTCACGTGGCTGA", "relative binding free energy": 0.32},
      {"sequence": "TACTGCACGTGATGGG", "relative binding free energy": 0.02},
      {"sequence": "TAGTTCACGTGTGGAA", "relative binding free energy": 0.17},
      {"sequence": "CTTGTCACGTGTGGTA", "relative binding free energy": 0.13},
      {"sequence": "CTGTTCACGTGTTGCA", "relative binding free energy": 0.33},
      {"sequence": "CGTGGCACGTGGGCCT", "relative binding free energy": -0.29},
      {"sequence": "TGGGACACGTGTAGGT", "relative binding free energy": 0.12},
      {"sequence": "GGCGCCACGTGGTGGG", "relative binding free energy": -0.13},
      {"sequence": "TGACACACGTGGTCGT", "relative binding free energy": 0.06},
      {"sequence": "TGGCTCACGTGTGGAA", "relative binding free energy": 0.28},
      {"sequence": "GAGTGCACGTGAGGTA", "relative binding free energy": 0.21},
      {"sequence": "CAGGTCACGTGAGTTA", "relative binding free energy": 0.26},
      {"sequence": "GTTAACACGTGAGTTT", "relative binding free energy": 0.33},
      {"sequence": "CTTTACACGTGGGGCG", "relative binding free energy": 0.02},
      {"sequence": "ATCTTCACGTGAAGGT", "relative binding free energy": 0.53},
      {"sequence": "AACTGCACGTGGAGGG", "relative binding free energy": 0.07},
      {"sequence": "AGTGACACGTGTTCAT", "relative binding free energy": 0.13},
      {"sequence": "CGGATCACGTGGGGCT", "relative binding free energy": 0.07},
      {"sequence": "TGGTACACGTGTAGGG", "relative binding free energy": 0.15},
      {"sequence": "TGAGGCACGTGGGATG", "relative binding free energy": -0.14},
      {"sequence": "TTTAGCACGTGATGCT", "relative binding free energy": 0.07},
      {"sequence": "GGCTTCACGTGGGAGA", "relative binding free energy": 0.17},
      {"sequence": "GTGCGCACGTGGCGGT", "relative binding free energy": -0.17},
      {"sequence": "AGCCGCACGTGCGGGG", "relative binding free energy": -0.15},
      {"sequence": "TTGGCCACGTGGGGGC", "relative binding free energy": -0.18},
      {"sequence": "ATGGTCACGTGGATCA", "relative binding free energy": 0.15},
      {"sequence": "CGCGGCACGTGCAGGG", "relative binding free energy": -0.09},
      {"sequence": "TGATGCACGTGGGGCT", "relative binding free energy": -0.12},
      {"sequence": "GCTGACACGTGGTAGT", "relative binding free energy": 0.02},
      {"sequence": "TGTGACACGTGAGTTG", "relative binding free energy": 0.08},
      {"sequence": "CTGTTCACGTGAGTGA", "relative binding free energy": 0.21},
      {"sequence": "TAGGGCACGTGTTGGG", "relative binding free energy": -0.04},
      {"sequence": "TGGCGCACGTGGAGGT", "relative binding free energy": -0.06},
      {"sequence": "ATTTGCACGTGTACTA", "relative binding free energy": 0.05},
      {"sequence": "GTAAGCACGTGTAAGG", "relative binding free energy": 0.09},
      {"sequence": "GTTAACACGTGAGGTG", "relative binding free energy": 0.46},
      {"sequence": "GGTGGCACGTGCATGA", "relative binding free energy": -0.02}
    ]}
  ]
}
